Experimental data: the supplement of paper PMC10126150
Values marked as one replicate rest on one cluster of the flow cell; about a third of the high ones do not repeat.

System: ATP
Assay: switch fluorescence ratio, 500 uM ATP over buffer (Cy3 cluster intensity, sum of 5 cycles each) (fold (ratio)); higher = stronger signal-on switching upon ATP binding; sequences stand for … in TCGTCGGCAGCGTCAGATGTGTATAAGAGACAGTTTTTTTTTTTTTTTTTTTTTTTTT…TC
Conditions: aptamer strand: ATP DNA aptamer (quencher-CACCTGGGGGAGTATTGCGGAGGAAGG + anchor), 100 nM annealed; ATP concentration: 500 uM; one replicate
How it was run: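 Per cluster, summed Cy3 intensity from the target cycles was divided by that from the buffer cycles to give the fluorescence ratio, then averaged per switch-domain sequence. Clusters outside 100-1000 RFU were excluded. The Cy3-labelled switching-strand clusters, on a modified Illumina MiSeq flow-cell, were annealed to 100 nM quencher-labelled ATP aptamer and imaged in selection buffer, then after 15 min with 500 uM ATP at 22 °C, for five cycles with NaOH stripping and re-annealing between them.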
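Further: ATP exposure 15 min at 22 °C before imaging.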

Row | Sequence | switch fluorescence ratio
1 | AAGTGCGTA | 0.999
2 | AGGTGTCTCA | 1
3 | GGGGCGGTCA | 1
4 | GGAGCGGCTG | 1.01
5 | GGCAATGTAC | 3.37
6 | GCTACCGGCT | 1.12
7 | TTCCGTTTGG | 0.979
8 | GCGCAATAGC | 4.72
9 | GATCGTCGGC | 1.05
10 | TATTTGAGCC | 1
11 | GCTCTTAAAT | 1.05
12 | TTCGGCGCAT | 2.64
13 | AGTTAATGGT | 0.975
14 | CTAACAGCAG | 1.12
15 | TTCAACTTTC | 1.09
16 | TGTAATAATG | 0.952
17 | TCACTGGAGA | 1
18 | ACTTTTAGGG | 1
19 | ACAGTAGCGA | 1.04
20 | CGAGGCTGGG | 1.04
21 | AGAGTGCTCT | 0.959
22 | TAGTAGGGG | 0.977
23 | ATGGCCCCCC | 0.986
24 | CCAGCCTCGT | 1.05
25 | CCCCGAGGTT | 1.78
26 | CCTGCCCAGA | 1.36

Row | Sequence | switch fluorescence ratio
27 | GTTCTTTAAG | 0.979
28 | CTCTTTCTA | 1.03
29 | AAAGCTTACA | 1.15
30 | TTACTGGCA | 1.06
31 | CGCCCGGTCG | 1.02
32 | AGTTCTAG | 0.99
33 | AGGCAATATT | 1.79
34 | TTGACCGCCA | 1.32
35 | CATTGATGGG | 0.945
36 | TGATAGACTC | 1.03
37 | TGTGAACATG | 1.04
38 | ATTTGGTTCG | 0.989
39 | CGTTTCTATA | 1.01
40 | TGTCGTATTG | 1.01
41 | GGCAGAGTGC | 1.14
42 | GTGGGATGTG | 0.977
43 | GTATCTTCCT | 1.58
44 | GTTATTACTG | 1.01
45 | CACTATGCGA | 1.2
46 | TGCCACAACA | 1.02
47 | GATCACCCGT | 1.03
48 | GGATCCTGC | 0.962
49 | AGTTACATGC | 1.01
50 | CCGATTTGGT | 2.98
51 | AATAGATTTG | 0.979
52 | TATTGATAGG | 1.05

Row | Sequence | switch fluorescence ratio
53 | TCAGGGGCT | 1.06
54 | ACATGTTCAA | 0.98
55 | AATATTCAAT | 1.01
56 | TCCAGAGAGT | 1
57 | AGAGTAGCGT | 0.994
58 | GGGAATACGA | 1.9
59 | TATGTTGCCG | 0.984
60 | TTAATTATAG | 0.954
61 | AAGTTATCAA | 1.02
62 | CCCTTTCACC | 1.1
63 | ACGCTGAGTC | 1.12
64 | GGTGTACTGC | 0.962
65 | AGCCATATAT | 1.05
66 | CCTGGATCCA | 1.01
67 | CAGACCGACT | 1.04
68 | GCCGAATAGA | 1.02
69 | AAGTGCGCCC | 1.01
70 | ACCGCGTTGG | 1.03
71 | TTTAAATGTA | 1.02
72 | CAAAGTGGAT | 1.03
73 | CTGAAAGGTG | 1.1
74 | GGAGGGGTAT | 1.03
75 | AATCAATGCT | 1.1
76 | ATACGGAAAG | 1
77 | TCATATTCAT | 0.925
78 | CCCATTAAAA | 1.01

Row | Sequence | switch fluorescence ratio
79 | GCCAGGAGAC | 1.03
80 | GTTTTGCCGA | 0.938
81 | TAACTTTATT | 1.02
82 | ACCTAGTTCA | 1.02
83 | ATATTCTGTG | 0.988
84 | TATGAGTAGA | 1.02
85 | CGACGGTTAG | 0.972
86 | ATGTAGCCGG | 1.01
87 | GGATTAATA | 1
88 | TCGGCGGCAG | 1
89 | CACAGGGTAC | 1.1
90 | CACTCCTGTT | 1.01
91 | ATGGATCCGT | 0.963
92 | TTATAGTGGT | 0.979
93 | CATTTTATAG | 0.983
94 | TTCCCCTCGG | 1.17
95 | CGTACGACGA | 1
96 | TGCAATAGTC | 2.17
97 | AGCCTTCTTG | 1.03
98 | AGAGACTCAG | 1.02
99 | GGGGAGCAGA | 1.06
100 | TGAGCTGATA | 1.01
101 | CTTTAGAAGT | 0.979
102 | ATTGGGACTG | 1.03
103 | CAGGATCACA | 0.987
104 | TGTTCCAG | 0.996

Row | Sequence | switch fluorescence ratio
105 | GCTGAAAGAT | 1.03
106 | TAAAGTGAAA | 1.07
107 | AACGGTTGAG | 1.04
108 | GGATCGAACA | 0.976
109 | ATGGTCACGA | 0.99
110 | ACTAGCAGAT | 1.05
111 | TGAATTACGG | 1.07
112 | TCGCTCGTAT | 1
113 | GTTACAAGGT | 0.972
114 | AATTGCCGAA | 1
115 | CGTTAGGTG | 0.995
116 | TCACTGGGCC | 1.05
117 | AACTTACCCG | 1.48
118 | TAAGTAGAAT | 0.968
119 | AGAATTTTGA | 1.02
120 | CCGGCTGAGC | 0.978
121 | GTATTTTGTG | 0.985
122 | TTTCTATAAT | 0.992
123 | GAGGCGGGAT | 0.965
124 | GAGGGACTAT | 1.04
125 | GGCTGAGCTA | 1.03
126 | TTTAACCAAA | 1.24
127 | AGATCAGGGT | 0.981
128 | AACAAGGAGA | 0.975
129 | CGTAGTATGT | 1.03
130 | AGTGATCCTG | 0.987

Row | Sequence | switch fluorescence ratio
131 | CATAATGTAG | 0.99
132 | GGCTTCGCGA | 1.94
133 | TCTCTATAGT | 1.05
134 | AAGCCGGACA | 0.969
135 | ATGCTAGTTA | 1.01
136 | GGGTCCTCAG | 1.02
137 | TTGGTACGTA | 0.934
138 | AGCTATGGAG | 1.01
139 | ACCGTGTTGG | 1
140 | CGCAGCAACG | 2.44
141 | GCGCCCGGTC | 1.06
142 | TGAAAATTG | 0.979
143 | CATATGACGA | 1
144 | CATCAGATTA | 1.04
145 | ACAGCTCTGC | 1.07
146 | AGCAATGGCT | 1.24
147 | CGGCCTGTCG | 0.897
148 | ACCCTTTTCA | 0.981
149 | TAGGTTCGA | 0.989
150 | GGGTTGCGGC | 1.01
151 | ATTGTACGAC | 1.09
152 | GGAACCGCAG | 2.42
153 | TGAAATGTTC | 1.01
154 | CTGATCAAA | 1.01
155 | GCGTACCCTT | 1.04
156 | ACTTTATCGG | 0.989

Row | Sequence | switch fluorescence ratio
157 | AACTCGTATG | 1.05
158 | CGAAGATAGG | 1
159 | GGTTCGTGCT | 0.987
160 | CTTCGTATAG | 1.24
161 | ACATGAGGG | 1
162 | TCCGCCCAG | 1.01
163 | TGGGTGATAC | 1.33
164 | TAGGAGGCTG | 1.1
165 | TACATTCCCC | 1.15
166 | CAATGGACG | 0.982
167 | GGCCCTTAGA | 0.987
168 | ACATCATCGA | 1.03
169 | TGGGACAGAC | 1.09
170 | GACGATAAA | 1.03
171 | TACGTGGGG | 0.989
172 | TGATCGATTT | 0.98
173 | CGGGAGTACG | 0.951
174 | TGGGTGACAA | 1.02
175 | GTTGGCGCA | 0.99
176 | TAATGCAGTC | 0.959
177 | CCGTGCAGGG | 1.09
178 | GCACCGCGCG | 1.05
179 | AACGTATGAT | 1.1
180 | TGCCTTATGT | 0.996
181 | TGTGCGCCTC | 1.03
182 | CCAAGACTGG | 0.964

Row | Sequence | switch fluorescence ratio
183 | ATAGACTTGT | 0.995
184 | GGGGATCGC | 1.02
185 | CTCGTCTGAT | 1.04
186 | TATAAACGG | 0.998
187 | CCTTTGGGTG | 1.21
188 | ACACTTGTAC | 1.2
189 | TACCCCGAAA | 1.12
190 | ACGCCCGAGC | 1.25
191 | TAAGTGATCA | 1.04
192 | ATATTATGCC | 1.01
193 | TTTTGTCGGC | 1
194 | AGCCACACG | 1.06
195 | AAGCACGAAC | 1.47
196 | ACCACTATG | 1.06
197 | CCAGTATGGG | 0.996
198 | TCAACTATCG | 1.05
199 | TTCACTTAGA | 1.02
200 | TCTCCTTTCG | 1.09
201 | CCCCCGGAGG | 1.28
